Test results as given in the RNAGym collection of RNA variant scans (doi:10.1093/nar/gkz1192).
Read counts are not given, so values of variants with three or more changes are uncertain.

B1: CPEB3 Ribozyme (parent)
chain: UAACAGGGGGCCACAGCAGAAGCGUUCACGUCGCAGCCCCUGUCAGAUUCUGGUGAAUCUGCGAAUUCUGCUGUAUAUCUC

Variants of: B1
Assay: self-cleavage, relative activity (ratio to wild type); higher = more cleavage; in vitro, sequencing
Procedure, shortened: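 CPEB3 self-cleaving ribozyme mutant libraries were made by rounds of error-prone PCR, barcoded, and transcribed in vitro with T7 RNA polymerase for 5 hours at 37°C. Cleavage occurred during transcription and a 15 min DNase I step before EDTA stop. RNAs were reverse transcribed with template switching and Illumina-sequenced, with DNA sequencing mapping barcodes to variants. Relative activity is the variant's cleaved/total read fraction divided by wild type's (minimum 5 reads), averaged across three batches.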

Variant	self-cleavage
UAGCAGGGGGGCACAGCAGAAGCGUUCACGUCGCGGCCCCUGUCAGAUUCUGGUGUAUCUGCGAAUCCUGUUGUAUAUAUC [A3G C11G A35G A56U U67C C71U C79A]	0.1
UAGUAGGGGGCCACAGCAGAAGCGUUCACGUCGCAGCCCCUGUCAGAUUCUGGUGAAUCUGCGAAUACUGCUGUAUAUCUC [A3G C4U U67A]	0.79
UAGCAGGGGGCCACAGCAGAAGCGUUCACGUCGCAGCCCCUGUCAGAUUCUGGUGGAUCUGCGAAUUCCGCUAUAUAUCUC [A3G A56G U69C G73A]	0.87
UAGCAGGGGGCCACAGCAGAAGCGUUCACGUCGCAGCCCCUGUCAGAUUCUGGUGGAUCAGCGAAUUCUGCUGUAUAUCUC [A3G A56G U60A]	0.68
UAGCAGGGGGCCACAGCAGAAGCGUUCACGUCGCAGCCCCUGUCAGAUUCUGGUGAAUCUGCGAGUUCUGCAGUGUAUCUC [A3G A65G U72A A75G]	0.83
UAGCAGGGGGCCACAGCAGAAGCGUUCACGUCGCAGCCCCUGUCAGAUUCUGGUGAGUCUGCGAAUCCUGCUGUUUAUCUC [A3G A57G U67C A75U]	0.38
UAGUAGGGGGCCGCAGCAGAGGCGUUCACGUCGCAGCCCCUGUCUGAUUCUGGUGAAUCUGCGAAUUCAGCUGUGUAUCUC [A3G C4U A13G A21G A45U U69A A75G]	0.44
UAGUAGGGGGCCACAGCAGAAGCGUUCACGUCGCAGCCCCUGUCUGAUUCUGGUGUAUCUGCGAAAUCUGCUGUAGAUCUC [A3G C4U A45U A56U U66A U76G]	0.16
UAGCAGGGGGCCACAGCAGAAGCGUUCACGUCGCAGCCCCUGUCAGAUUCUGGUGGAUUUGCGAAUUCCGCUGUAUAUCUC [A3G A56G C59U U69C]	0.15
UAGCAGGGGGCCACAGCAGAAGCGUUCACGUCGCAGCCCCUGUCAGAUUCUGGUGUAUCUGCGAAUUCUGCUGUGUGUCAC [A3G A56U A75G A77G U80A]	0.31
UAGCAGGGGGACACAGCAGAAGCGUCCACGUCGCAGCCCCUGUCAGAUUCUGGUGAAUCUGCGAAUUCUGCUGUAUAUCUC [A3G C11A U26C]	0.25
UAGCAGGGGGCCACAGCAGAAGCGUUCACGUCGCAGCCCCUGUCAGAUUCUGGUGUAUCUGCGAAUCCUGCUGCAUAUCUC [A3G A56U U67C U74C]	0.17
UAGAAGGGGGCCACUGCAGAAGCGUUCACGUCGCAGCCCCUGUCAGAUUCUGGUGAAUCUGCGAAUUCUGCCGUAUAUCCC [A3G C4A A15U U72C U80C]	1.16
UAGCAGGGGGCCACAGCAGAAGCGUUCACGUCGCAGCCCCUGUCAGAUUCUGGUGAAUCUGCGAUUUCUGCAGUAUAUCUC [A3G A65U U72A]	0.44
UAGCAGGGGGACACUGCAUAAGCGUUCUCGUCGCAGCCCCUGUCAGUUUCUGGUGAAUCUGCGAAUUCUGCUGUAUAUCCC [A3G C11A A15U G19U A28U A47U U80C]	0.05
UAGCAGGGGGCCACAGCAGAAGCGUUCACGUCGCAGCCCCUGUCAGAUUCUGGUGAAUCUGCGAGUUCAGCUGUAUAUCUC [A3G A65G U69A]	0.18
UAGCAGGGGGGCACAGCAGAAGCGUUCACGUCGCAGCCCUUGUCAGAUUCUAGUGAAUCUGCGAAUUCUGCUGUAUAUCAC [A3G C11G C40U G52A U80A]	0.11

Variant	self-cleavage
UAGUAGGGGGCCACGGCAGAAGCGUUCACGUCACAGCCCCCGUCAUAUUCUGGUGAAUCUGCGAAUUCUGCUGUAUAUCUC [A3G C4U A15G G33A U41C G46U]	0.19
UAGCAGGGGGACACAGCAGAAGCGUUCACGCCGCAGCCCCUGUCAGAUCCUGGUGAAUCUGCGAAUUCUGCCGUAUAUCUC [A3G C11A U31C U49C U72C]	0.46
UAGCAGGGGGCCACAGCAGAAGCGUUCACGUCGCAGCCCCUGUCAGUUUCUGGUGAAUCCGCGAAUUCUGCUGUAUAUCUC [A3G A47U U60C]	0.41
UAGCAGGGGGGCAGAGCAGAAGCGUCCACGUCGCAGCCCCUGUCAGAUUCUGGUGAAUCUGCGAACUCUGCUGUAUAUCCC [A3G C11G C14G U26C U66C U80C]	0.05
UAGCAGGGGGCCACAGCAGAAGCGUUCACGUCGCAGCCCCUGUCAGAUUCUGGUGAGUCUGCGAAUUCUGCCGUAUAUCUC [A3G A57G U72C]	0.43
UAGCAGGGGGCCACAGCAGAAGCGUUCACGUCGCAGCCCCUGUCAGAUUCUGGUGAAUCUGCGGAUUCUGCUGUAUAUCAC [A3G A64G U80A]	1.06
UAGCAGGGGGCCACAGCAGAAGCGUUCACGUCGCAGCCCCUGUCAGAUUCUGGUGAGUCUGCAUAUUCUGCUGUAUAUCUC [A3G A57G G63A A64U]	0.26
UAGCAGGGGGCCACAGCAGAAGCGUUCACGUCGCAGCCCCUGUCAGAUUCUGGUGGAUCUGCGGAUUCUGCUGUAUAUCUC [A3G A56G A64G]	1.03
UAGCAGGGGGACACAGCUGAAGCGUUCACGUCGCAGCCCCUGUCAGAUUCUGGUGAAUCUGCGAAUUCUGCUGUAUAUCUC [A3G C11A A18U]	0.11
UAGCAGGGGGCCACAGCAGAAGCGUUCACGUCGCAGCCCCUGUCAGAUUCUGGUGAAUCUGCGGAUUCUGCUGUAUAACUC [A3G A64G U78A]	1.12
UAGUAGGGGGCCACAGCAGAAGCGCUCACGUCGCAGCCCCUGUCAGAUUCUGAUGAAUCUGCGAAUUCUGCUGUAUAUCUC [A3G C4U U25C G53A]	0.68
UAGCAGGGGGACACAGCAGAAGCGUUCACGCCGCAGCCCCUGUCAGAUUCUGGUGAAUCUGCGAAUUCUGCUGUAUAUCUC [A3G C11A U31C]	0.15
UAGCAGGGGGACAUAGCAGAAGCGUUCACGUCGCAGCCCCUGUCAGAUUCUGGUGGGUCUGCGAAUUCCGCUGUAUAACUC [A3G C11A C14U A56G A57G U69C U78A]	0.07
UAGAAGGGGGCCACAGCAGAAGCGUCCUCGUCGCAGCCCCUGCCAGAUUCCGGUAAAUCUGCGAAUUCUGCUGUAUAUCUC [A3G C4A U26C A28U U43C U51C G55A]	0.33
UAGCAGGGGGCCACAGCAGAAGCGUUCACGUCGCAGCCCCUGUCAGAUUCUGGUGAGUCUGCGUACUCUGCUGUAUAUCUC [A3G A57G A64U U66C]	0.31
UAGUAGGGGGCCACAGCAGAAGCGUUCACGUCGCAGCCCCUGUCAGAUUCUGGUGAAUCUGCGAAUUCUGCUCUAUAUCUC [A3G C4U G73C]	1.18
UAGCAGGGGGCCACAGCAGAAGCGUUCACGUCGCAGCCCCUGUCAGAUUCUGGUGAAUCUGCGAAUUCUGCUGUAUUUCUA [A3G A77U C81A]	1.24
